Source: publication PMC4336329 (PLoS ONE, 2015)
Hit rate of the full screen: of about 310,000 compounds, about 2,200 (0.71%) showed an effect of 50% or more. The effect is printed as a negative number. The list shows a part of the results.

The compounds below were run against human ether-à-go-go-related gene (hERG) potassium channel (human, UniProt Q12809) (assay: primary screen, population patch clamp on CHO cells stably expressing hERG).
Sequence of human ether-à-go-go-related gene (hERG) potassium channel (Q12809 whole entry, looked up): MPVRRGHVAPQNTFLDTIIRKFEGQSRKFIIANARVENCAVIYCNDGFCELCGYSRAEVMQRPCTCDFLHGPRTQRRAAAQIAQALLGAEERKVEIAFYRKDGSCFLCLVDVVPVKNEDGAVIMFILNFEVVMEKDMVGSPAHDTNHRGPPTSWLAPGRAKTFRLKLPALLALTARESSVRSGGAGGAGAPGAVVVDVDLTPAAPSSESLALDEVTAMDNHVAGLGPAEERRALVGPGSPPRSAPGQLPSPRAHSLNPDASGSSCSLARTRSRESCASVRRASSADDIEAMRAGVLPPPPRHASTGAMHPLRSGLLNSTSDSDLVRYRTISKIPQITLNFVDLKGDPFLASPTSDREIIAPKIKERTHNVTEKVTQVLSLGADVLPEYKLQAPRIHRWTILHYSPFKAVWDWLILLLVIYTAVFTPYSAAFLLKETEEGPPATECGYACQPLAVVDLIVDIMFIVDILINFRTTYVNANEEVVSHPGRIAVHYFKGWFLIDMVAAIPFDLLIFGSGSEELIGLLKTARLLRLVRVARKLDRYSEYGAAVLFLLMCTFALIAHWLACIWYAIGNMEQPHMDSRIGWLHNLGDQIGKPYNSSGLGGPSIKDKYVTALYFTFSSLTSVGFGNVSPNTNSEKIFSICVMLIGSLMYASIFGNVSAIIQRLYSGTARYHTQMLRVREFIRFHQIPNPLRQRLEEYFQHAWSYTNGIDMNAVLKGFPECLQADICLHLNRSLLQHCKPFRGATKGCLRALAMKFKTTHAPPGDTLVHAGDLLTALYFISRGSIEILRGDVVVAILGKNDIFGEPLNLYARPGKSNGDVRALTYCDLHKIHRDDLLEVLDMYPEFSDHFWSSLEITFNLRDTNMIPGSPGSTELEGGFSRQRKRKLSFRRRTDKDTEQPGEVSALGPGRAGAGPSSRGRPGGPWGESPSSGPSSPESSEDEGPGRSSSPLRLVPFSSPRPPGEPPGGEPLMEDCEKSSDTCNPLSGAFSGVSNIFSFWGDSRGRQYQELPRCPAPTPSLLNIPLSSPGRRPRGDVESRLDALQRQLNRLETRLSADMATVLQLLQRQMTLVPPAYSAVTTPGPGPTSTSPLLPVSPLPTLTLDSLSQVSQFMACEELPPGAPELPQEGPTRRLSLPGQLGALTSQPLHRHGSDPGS

Compound | hERG current change (%, negative = inhibition) at 1uM [%]
CC1=C2C3OC(=O)C(C)[C@@H]3CC[C@](C)(O)C2C2C3C4C5(C12)[C@H]1OC(=O)[C@@H](C)C1CC[C@]4(C)O[C@]5(C)[C@@H]3O (some centres unmarked) | 16.3
N/C(=N\OC(=O)COc1ccc(Br)cc1Cl)c1cccnc1 | 12.7
Cc1ccc(NC(=O)CCN2C(=O)c3cccc([N+](=O)[O-])c3C2=O)c(Br)c1 | 13.1
CC(C)Sc1ncc(S(=O)(=O)c2ccccc2)c(=O)[nH]1 | 13.9
COc1ccccc1C(=O)Nc1ccnn1C1CCN(Cc2cnc(N(C)C)s2)CC1 | -24.7
CCCCCC(=O)Nc1ccc(-c2nnc3n2CCCCC3)cc1 | 14.1
S=c1[nH]nc(CNc2ccc(Cl)cc2)n1Cc1ccccc1 | 9.03
CCCCN(C)CCCNC(=O)/C=C1\Sc2ccccc2NC1=O | -0.0844
COC(=O)CSc1cnc2ccccc2n1 | 10.7
O=S(=O)(c1cc(Cl)ccc1Cl)N1CCCCC1 | 13.8
CCc1ccc(CN(C)C(=O)c2cc(S(=O)(=O)N3CCOCC3)ccc2N2CCCC2)cc1 | 3.03
C#CCOCCOCCOCCNc1nc(N2CCN(C(=O)[C@H](Cc3ccc(O)cc3)n3cc(C(N)CC(C)C)nn3)CC2)nc(N2CCN(C(=O)[C@H](CCC(=O)O)n3cc(C(N)[C@H](C)CC)nn3)CC2)n1.Cl (some centres unmarked) | 10.8
O=C(O)CSc1nc2c(c(C(F)(F)F)n1)CCCC2 | 6.72
O=C(c1cccc(C(F)(F)F)c1)N1CCN(CCc2ccccc2)CC1 | 1.81
CC(=O)Nc1cccc(NC(=O)COC(=O)C2CC3CCCC(C2)C3=O)c1 (centres unmarked) | 10.4
Br.O=C(CN1C2=NCCN2c2ccccc21)c1ccc(Br)s1 | -0.685
O=c1[nH]c2ccc(Br)cc2c(-c2ccccc2)c1CN1CCOCC1 | -9.05
N#CCSc1nc2c(cc1C#N)CCCC2 | -4.56
CC(=O)Nc1c(C)ccc2nsnc12 | 6.78
CNc1oc(-c2ccc(C)cc2)nc1P(=O)(c1ccccc1)c1ccccc1 | 5.8
COc1ccc(CC(=O)N2CC(=O)N(CCc3ccccc3)C(=O)C2)cc1 | -21
O=C(OCc1cncs1)c1cccs1 | 14.9
Nc1c(C(=O)CSc2nnc(Cc3ccccc3)o2)c(=O)[nH]c(=O)n1C1CC1 | 9.63
